# Test results published in publication PMC4336329 (PLoS ONE, 2015).
# The campaign covered roughly 310,000 compounds. About 14,000 (4.5%) showed an effect of 50% or more. The effect is printed as a negative number. This is one part of the list.
# Molecular target: human ether-à-go-go-related gene (hERG) potassium channel (human, UniProt Q12809)
# Experiment: primary screen, population patch clamp on CHO cells stably expressing hERG
# 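Note: peak tail current of the secondary pulse compared with the same well before compound.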
# human ether-à-go-go-related gene (hERG) potassium channel, sequence (Q12809 whole entry, looked up): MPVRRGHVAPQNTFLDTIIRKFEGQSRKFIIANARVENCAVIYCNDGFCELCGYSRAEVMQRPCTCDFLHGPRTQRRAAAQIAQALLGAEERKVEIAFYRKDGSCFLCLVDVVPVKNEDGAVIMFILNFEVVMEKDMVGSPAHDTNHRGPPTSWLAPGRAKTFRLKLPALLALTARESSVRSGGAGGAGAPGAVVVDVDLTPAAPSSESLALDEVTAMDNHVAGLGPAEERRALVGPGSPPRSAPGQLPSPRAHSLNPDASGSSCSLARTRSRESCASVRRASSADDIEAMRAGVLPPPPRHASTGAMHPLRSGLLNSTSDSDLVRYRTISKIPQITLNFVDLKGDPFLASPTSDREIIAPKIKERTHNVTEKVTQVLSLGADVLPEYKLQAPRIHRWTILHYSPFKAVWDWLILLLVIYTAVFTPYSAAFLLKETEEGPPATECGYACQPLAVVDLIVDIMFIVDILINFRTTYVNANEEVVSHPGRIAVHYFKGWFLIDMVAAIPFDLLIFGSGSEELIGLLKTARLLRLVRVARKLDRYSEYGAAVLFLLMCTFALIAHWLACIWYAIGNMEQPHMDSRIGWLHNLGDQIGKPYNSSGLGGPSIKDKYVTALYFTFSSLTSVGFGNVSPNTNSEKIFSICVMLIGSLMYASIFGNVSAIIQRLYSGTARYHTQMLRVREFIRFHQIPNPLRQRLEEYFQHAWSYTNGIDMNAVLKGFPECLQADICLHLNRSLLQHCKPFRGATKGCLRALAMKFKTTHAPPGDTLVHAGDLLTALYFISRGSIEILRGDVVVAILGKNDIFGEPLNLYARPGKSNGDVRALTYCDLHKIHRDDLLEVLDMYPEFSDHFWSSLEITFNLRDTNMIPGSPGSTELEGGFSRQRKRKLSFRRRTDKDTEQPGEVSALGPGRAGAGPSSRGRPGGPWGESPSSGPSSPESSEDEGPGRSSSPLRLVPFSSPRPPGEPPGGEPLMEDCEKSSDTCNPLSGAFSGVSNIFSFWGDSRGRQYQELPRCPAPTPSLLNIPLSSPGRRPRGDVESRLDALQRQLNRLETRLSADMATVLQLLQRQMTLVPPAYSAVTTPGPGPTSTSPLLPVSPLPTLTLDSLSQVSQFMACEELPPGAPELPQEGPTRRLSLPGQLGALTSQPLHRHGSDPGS
row,Compound,"hERG current change (%, negative = inhibition) at 10uM [%]"
1,COC(=O)c1ccc(CN2CCC(Oc3cccc(C(=O)N4CCCC4)c3)CC2)cc1,-50.8
2,O=C(NCCCNC(=O)c1cc(Cl)ccc1Cl)c1ccccn1,-8.84
3,O=C(NC(Cc1c[nH]c2ccccc12)C(=O)Nc1ccc(F)c([N+](=O)[O-])c1)c1cccs1 (centres unmarked),-22.1
4,COc1ccccc1N(CC(N)=O)S(=O)(=O)c1ccc(C)cc1,0.766
5,COc1ccc(Br)cc1/C=N/N1CCN(Cc2ccccc2)CC1,9.27
6,O=C(Nc1cccc(-n2cnnn2)c1)c1cc2ccccc2o1,5.66
7,O=C1c2ccccc2NC(c2ccccc2)N1Cc1ccccc1 (centres unmarked),-35.2
8,CCN(CC)CCN1C(=O)C(O)=C(C(=O)c2cc3cccc(OC)c3o2)C1c1cccs1 (centres unmarked),-10.9
9,Cc1cc(Nc2nc3ccccc3nc2Cl)n(-c2ccccc2)n1,-12.6
10,N#CC1=C(SCC(=O)c2cc3ccccc3oc2=O)NC(=O)C(C#N)C12CCCC2 (centres unmarked),-54.5
11,S=C(N/N=C/c1cccs1)NC1CC2CCC1C2 (centres unmarked),4.93
12,CC1(CCc2ccccc2)NC(=O)N(CC(=O)Nc2ccccc2C#N)C1=O (centres unmarked),2.41
13,O=C(Nc1ccc(F)cc1)C1CCN(C(=O)c2ccc([N+](=O)[O-])cc2)CC1,-4.16
14,Cn1c(CO)cnc1S(=O)(=O)Cc1ccc(Cl)cc1,5.81
15,N#CCC(=O)N1CCn2c1nc1ccccc12,17.2
16,CCC(C)NC(=O)c1ccc2c(Cl)c3c(nc2c1)CCC3 (centres unmarked),-23.6
17,Cc1cc(C)nc(NS(=O)(=O)c2ccc(N3Cc4ccccc4C3=O)cc2)n1,12.2
18,COc1cc(O)oc1C=Nc1ccc(Cl)cc1,-4.28
19,O=S(=O)(c1ccc(N2CCN(c3ccc(F)cc3)CC2)cc1)N1CCCC1,6.07
20,CC(C)c1cc(=O)n2[nH]c(SCc3ccc(Cl)cc3)nc2n1,27.6
21,CCC(=O)N(Cc1cc(=O)[nH]c2ccccc12)c1cccc(C)c1,3.53
22,Cc1cc(=O)[nH]c(SCC(=O)Nc2ccc(Br)cc2)n1,-3.99
23,CCCCCCCCCCCCN1[C@@H](CC(C)=O)c2cc(F)ccc2S1(=O)=O,6.96

row,Compound,"hERG current change (%, negative = inhibition) at 10uM [%]"
1,O=S(=O)(NCCN1CCOCC1)c1ccc(Oc2ccccc2Cl)cc1,-20.7
2,CCOc1ccccc1NC(=O)C(OC(=O)c1cnccn1)c1ccccc1 (centres unmarked),-1.43
3,CCCCCn1c(CN2CCN(Cc3ccccc3)CC2)nc2c1c(=O)[nH]c(=O)n2C,-72.3
4,COc1ccc(NC(=O)CSc2nnc(-c3ccccc3)n2N)cc1,-4.04
5,COc1ccc(Cn2c(=S)[nH]c3cc(OC)c(OC)cc3c2=O)cc1,20.4
6,Cc1nc2ccccc2c(=O)n1-c1ccc(NS(=O)(=O)c2ccc(F)cc2)cc1,-36.8
7,O=C(NCc1ccco1)c1nn2c(C(F)(F)F)cc(-c3cccs3)nc2c1Br,-16.3
8,O=C(Cn1ncn2c(cc3sccc32)c1=O)NC1CCCC1,7.29
9,COC(=O)c1c(NC(=O)/C=C/C(=O)O)sc(C)c1-c1ccc(C)cc1,-16.6
10,O=C(O)/C(=N/NC(=O)c1ccc(Cl)cc1)c1ccccc1,8.68
11,COc1ccc(C(=O)NCc2n[nH]c(=S)n2-c2ccccc2)cc1OC,23.2
12,O=[N+]([O-])c1cc(C2Nc3cccc4cccc(c34)N2)ccc1Cl,13.5
13,CN1CCCN(C(=O)Cc2c(Cl)cccc2Cl)c2nc3ccccc3nc21,13
14,COc1cccc(NC(=O)N2CCCC2C(=O)Nc2ccc3c(c2)OCCO3)c1 (centres unmarked),12.8
15,Cc1csc(NC(=O)CS(=O)(=O)c2ccccc2)n1,-18.1
16,CCn1c(COc2ccccc2)nnc1SCC(=O)Nc1cc(C)ccc1OC,-37.5
17,O=C(NNC(=O)c1ccccc1Br)c1cccs1,-1.19
18,CC1CCc2c(sc(NC(=O)Cn3cnc([N+](=O)[O-])n3)c2C(N)=O)C1 (centres unmarked),16.5
19,C/C(=N\NC(=O)CN1CCN(S(=O)(=O)c2ccc(C)cc2)CC1)c1ccc(O)cc1,-6.97
20,CSc1ccccc1OCc1cc(C(=O)NCCn2nc(C)cc2C)no1,-0.00922
21,CN(Cc1ccccc1)S(=O)(=O)c1nnc(NC(=O)c2ccc(F)cc2)s1,1.42
22,O=C(Oc1ccccc1[N+](=O)[O-])c1cccnc1,-11.8
23,COc1ccc(-c2ccc(NCCC3=CCCCC3)nn2)cc1OC,25.7

row,Compound,"hERG current change (%, negative = inhibition) at 10uM [%]"
1,Cc1cc2c3c([nH]c2cc1S(=O)(=O)NCc1ccc(CN2CCCCCC2)o1)CC(C)(C)CC3=O,11.9
2,Cn1c(=O)oc2cc(S(=O)(=O)N3CCC(C(=O)NCc4ccccc4Cl)CC3)ccc21,4.22
3,COc1ccccc1N1CCN(c2nc3c(C)cccn3c(=O)c2C=O)CC1,-32.4
4,O=C(NCCS(=O)(=O)N1CCN(c2ccccc2)CC1)c1ccco1,-14.5
5,COc1ccc(NC(=O)C(CC(C)C)NC(=O)c2ccccc2C)cn1 (centres unmarked),-6.2
6,CC1(C)NC(=O)N(CCCCOc2cccc(C(F)(F)F)c2)C1=O,-6.92
7,CC(=O)Oc1ccc(C(=O)Nc2nccs2)cc1,4.34
8,COc1cccc(/C=N/n2c(N)nc3ccccc32)c1OC,3.13
9,COCC1CCN(C(=O)C2CCC(=O)N(Cc3ccc(Cl)cc3)C2)CC1 (centres unmarked),-4.15
10,Cc1ccc(S(=O)(=O)CC(=O)Nc2nccs2)cc1,0.295
11,Cn1c(CCC(=O)OCC(=O)NCc2ccccc2Cl)nc(=O)c2ccccc21,13.1
12,CC(C)(C)c1ccc(NC(=O)CN2C(=O)NC(C)(C3CC3)C2=O)cc1 (centres unmarked),-25.5
13,Cc1cccc(C)c1N1C(=O)[C@@H]2C(c3ccccc3Cl)=NO[C@@H]2C1=O,11.8
14,O=C(N/N=C/c1ccc[nH]1)c1ccc(O)cc1,19.6
15,Cc1cc(=O)oc2cc(NC(=O)CN3C(=O)NC(C)(c4ccccc4)C3=O)ccc12 (centres unmarked),11.3
16,Cc1ccc(C)n1-c1cccc(N)c1,-8.63
17,COc1ccc(CNC(=O)Cn2cccc2C(=O)c2ccccc2)cc1,-2.71
18,CCOc1cc(C2C(C#N)=C(N)OC(C)=C2C(C)=O)c(Br)c(Br)c1OC(C)C (centres unmarked),4.61
19,COc1ccc(S(=O)(=O)N(CCCN2CCOCC2)Cc2cccc(OC)c2OC)cc1,-12.5
20,CCC(O)(CC)C(=O)N=Nc1c(O)[nH]c2ccccc12,14.5
21,CC(=O)Nc1cccc(C(=O)OC(C)C(=O)NCc2ccc3c(c2)OCO3)c1 (centres unmarked),-2.69
22,O=C(N=C1SC2CS(=O)(=O)CC2N1c1ccc(F)c(Cl)c1)C1CC1 (centres unmarked),-2.29
23,CCOC(=O)CN1C(=O)c2ccccc2Sc2ncccc21,8.95

row,Compound,"hERG current change (%, negative = inhibition) at 10uM [%]"
1,CN1CCCC(OC(=O)c2cccc(Cl)c2)C1.Cl (centres unmarked),-17.5
2,COc1ccc(-n2nc(C(=O)NCC(=O)Nc3cc(C)ccc3OC)c3ccccc3c2=O)c(OC)c1,10.6
3,COc1nc(Nc2nc3ccccc3c(=O)[nH]2)nc2ccc(C)cc12,5.71
4,COc1cccc(OCc2cc(C(=O)N(C)Cc3nc(C)cs3)no2)c1,-8.13
5,CC(NC(=O)CCc1c[nH]c2ccccc12)c1ccccc1 (centres unmarked),24.4
6,COC(=O)[C@@H](NC(=O)Nc1ccc(C(C)=O)cc1)C(C)C,6.95
7,CC1(C)Cc2ccccc2-c2nc(NN)[nH]c(=O)c21,12.8
8,S=C(NC1CCCCC1)NN1CCOCC1,7.4
9,CC(=O)c1cccc(S(=O)(=O)NCC2CCCCC2)c1,-42.5
10,O=C(CSc1ncn[nH]1)Nc1ccccc1-c1ccccc1,5.85
11,CCC(C)c1ccc(NC(=O)C/C(C)=N/NC(=O)c2cnccn2)cc1 (centres unmarked),-17.2
12,COc1cc(CN2CCN(C(=O)CC(C)C)CC2)c([N+](=O)[O-])cc1OC,8.77
13,O=C(CN1CCC(n2nnc3cc(F)ccc32)CC1)N1CCCc2ccccc21,-64.2
14,COc1ccc(-c2nc(CCNS(=O)(=O)c3ccc4c(c3)OCCO4)cs2)cc1,-29.4
15,Cl.Cn1nnnc1SCCNCc1cc(Cl)ccc1OCc1ccccc1,-42.7
16,O=C(Nc1ccc(-n2nncc2-c2ccco2)cc1)c1cccc(F)c1,-5.09
17,O=C(CSc1nnnn1C1CCCC1)Nc1ccc2c(c1)OCO2,0.109
18,c1ccc(CCN2CN(CCCN3CCOCC3)c3nc4ccccc4n3C2)cc1,-39.8
19,O=C(Nc1ccon1)Nc1ccc(F)cc1F,6.68
20,COc1ccc(/C=N/N2CCN(c3ccccc3)CC2)cc1Br,16
